Measured values from the supplement of paper PMC4967469.
By IC50 is meant the dose at which the fit gives 50% viability; fits outside the tested doses are given as limits. AUC is the area under the same curve over the 256-fold range up to the top dose, as a fraction: 1 means no effect, lower means more sensitive. For some of these results: Any top dose called inferred is not printed in the source and was worked back from the curve model. For some of these results: Drugs with an entry number were screened twice under separate entries, and the two screens often disagree.

Assays:
Assay in all cases: Viability of human cancer cell lines after 72 h of drug (GDSC screen)
[1] = compound: C/C=C(/C)C(=O)O[C@H]1C(C)=C2[C@H]([C@@H]1OC(=O)CCCCCCC)[C@@](C)(OC(C)=O)C[C@H](OC(=O)CCC)[C@@]1(O)[C@H]2OC(=O)[C@@]1(C)O [Thapsigargin]; conditions: top dose 0.512 µM; top dose inferred
Method: (§1)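 Human cancer cell lines in 384-well plates, medium with 10% serum, drug for 72 h over a 256-fold dose range (nine 2-fold or five 4-fold steps up to the top dose). Adherent lines were fixed and stained with the nucleic acid dye Syto60, suspension lines read with resazurin; signal relative to control wells, capped at 0 and 100%. One two-parameter sigmoid per drug and line, fitted in a mixed model over all curves with the slope shared within a line.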

[2] = compound: C=CC(=O)Nc1cc(-n2c(=O)ccc3cnc4ccc(-c5cn[nH]c5)cc4c32)ccc1C [QL-X-138]; conditions: top dose 10.24 µM; top dose inferred
Method: as §1

[3] = compound: CCn1c(-c2nonc2N)nc2cnc(Oc3cccc(NC(=O)c4ccc(OCCN5CCOCC5)cc4)c3)cc21 [GSK269962A]; conditions: top dose 5 µM; screen: GDSC drug entry 1192; top dose inferred
Method: as §1

[4] = compound: COc1cc(N2CCC(O)CC2)ccc1Nc1cc(Nc2ccccc2S(=O)(=O)C(C)C)c2cc[nH]c2n1 [MPS-1-IN-1]; conditions: top dose 20 µM; top dose inferred
Method: as §1

[5] = compound: COc1cc(O)c2c(c1)/C=C/C[C@H](O)[C@H](O)C(=O)/C=C\C[C@H](C)OC2=O [(5Z)-7-Oxozeaenol]; conditions: top dose 10 µM; top dose inferred
Method: as §1

[6] = compound: COc1cc2ncnc(-n3nc(-c4ccccn4)nc3N)c2cc1OC [CP466722]; conditions: top dose 16 µM; top dose inferred
Method: as §1

[7] = compound: COc1nc(C)cnc1NS(=O)(=O)c1cccnc1-c1ccc(-c2nnco2)cc1 [Zibotentan]; conditions: top dose 20 µM; top dose inferred
Method: as §1

[8] = compound: C[C@]1(c2nc3c(C(N)=O)cccc3[nH]2)CCCN1 [ABT-888]; conditions: top dose 5 µM; top dose inferred
Method: as §1

[9] = compound: Cc1ccc(F)c(NC(=O)Nc2ccc(-c3cccc4[nH]nc(N)c34)cc2)c1 [ABT-869]; conditions: top dose 1.024 µM; top dose inferred
Method: as §1

[10] = compound: Cc1cnc(-c2cnc(NCCNc3ccc(C#N)cn3)nc2-c2ccc(Cl)cc2Cl)[nH]1 [CHIR-99021]
Method: as §1

[11] = compound: Nc1ccn([C@@H]2O[C@H](CO)[C@@H](O)[C@@H]2O)c(=O)n1 [Cytarabine]; conditions: top dose 2 µM
Method: as §1

[12] = compound: O=c1cc(-c2cccc3c2Sc2ccccc2S3)oc(N2CCOCC2)c1 [KU-55933]; conditions: top dose 10 µM
Method: as §1

[13] = top dose 2.56 µM, screen: GDSC drug entry 154
[14] = top dose 10 µM, screen: GDSC drug entry 1241, top dose inferred

Cell Line | AUC [1] | IC50 [1] | AUC [2] | IC50 [2] | AUC [3] | IC50 [3] | AUC [4] | IC50 [4] | AUC [5] | IC50 [5] | AUC [6] | IC50 [6] | AUC [7] | IC50 [7] | AUC [8] | IC50 [8] | AUC [9] | IC50 [9] | AUC [10, 13] | IC50 [10, 13] | AUC [10, 14] | IC50 [10, 14] | AUC [11] | IC50 [11] | AUC [12] | IC50 [12]
NCI-H2029 (small cell lung carcinoma, adherent) | 0.874 | 0.417 µM | 0.887 | 9.48 µM | 0.967 | > 5 µM | 0.964 | > 20 µM | 0.834 | 5.65 µM | 0.96 | > 16 µM | 0.992 | > 20 µM | 0.949 | > 5 µM | 0.992 | > 1.02 µM | 0.992 | > 2.56 µM | 0.992 | > 10 µM | 0.972 | > 2 µM | – | –
NCI-H2122 (lung adenocarcinoma, adherent) | 0.2 | – | 0.961 | > 10.2 µM | 0.985 | > 5 µM | 0.924 | > 20 µM | 0.874 | 8.7 µM | 0.909 | > 16 µM | 0.988 | > 20 µM | 0.985 | > 5 µM | 0.988 | > 1.02 µM | 0.876 | 2.26 µM | 0.853 | 7.03 µM | 0.68 | 0.383 µM | – | –
OCI-LY7 (B-cell lymphoma, suspension) | – | – | – | – | 0.395 | 0.174 µM | – | – | – | – | – | – | – | – | 0.996 | > 5 µM | – | – | – | – | – | – | 0.975 | > 2 µM | 0.826 | 3.94 µM
PA-TU-8988T (pancreas, adherent) | 0.157 | 0.00282 µM | 0.757 | 3.54 µM | 0.879 | > 5 µM | 0.963 | > 20 µM | 0.482 | 0.557 µM | 0.873 | 15.5 µM | 0.987 | > 20 µM | 0.969 | > 5 µM | 0.982 | > 1.02 µM | 0.986 | > 2.56 µM | 0.907 | > 10 µM | 0.639 | 0.304 µM | – | –
PANC-08-13 (pancreas, adherent) | 0.43 | 0.0195 µM | 0.832 | 9.25 µM | 0.977 | > 5 µM | 0.806 | 13.8 µM | 0.803 | 6.69 µM | 0.878 | > 16 µM | 0.972 | > 20 µM | 0.97 | > 5 µM | 0.963 | > 1.02 µM | 0.969 | > 2.56 µM | 0.955 | > 10 µM | 0.825 | 1.68 µM | – | –
RMG-I (ovary, adherent) | 0.47 | 0.0261 µM | 0.53 | 0.783 µM | 0.851 | 4.87 µM | 0.956 | > 20 µM | 0.332 | 0.195 µM | 0.777 | 7.55 µM | 0.97 | > 20 µM | 0.979 | > 5 µM | 0.982 | > 1.02 µM | 0.969 | > 2.56 µM | 0.9 | > 10 µM | 0.957 | > 2 µM | – | –
